# Some of the results follow.
# B1: PhoQ; a variant is named by its letters at X, in order, P23837 (parent)
# chain: MKKLLRLFFPLSLRVRFLLATAAVVLVLSLAYGMVALIGYSVSFDKTTFRLLRGESNLFYTLAKWENNKLHVELPENIDKQSPTMTLIYDENGQLLWAQRDVPWLMKMIQPDWLKSNGFHEIEADVNDTSLLLSGDHSIQQQLQEVREDDDDAEMTHSVAVNVYPATSRMPKLTIVVVDTIPVELKSSYMVWSWFIYVLSANLLLVIPLLWVAAWWSLRPIEALAKEVRELEEHNRELLNPATTRELTSLVRNLNRLLKSERERYDKYRTTLTDLTHSLKTPLXXLQXXLRSLRSEKMSVSDAEPVMLEQISRISQQIGYYLHRASMRGGTLLSRELHPVAPLLDNLTSALNKVYQRKGVNISLDISPEISFVGEQNDFVEVMGNVLDNACKYCLEFVEISARQTDEHLYIVVEDDGPGIPLSKREVIFDRGQRVDTLRPGQGVGLAVAREITEQYEGKIVAGESMLGGARMEVIFGRQHSAPKDE
# Variants of: B1
# Test: enrichment ratio after two sorts for PhoP signalling (ratio (wild type AVST 3.29)); higher = more functional
# Conditions: with PhoP (E. coli)
row,Variant,enrichment ratio
1,KTPR,≤ 0.25
2,WHWQ,≤ 0.25
3,VTCN,≤ 0.25
4,NLLD,≤ 0.25
5,VRRC,≤ 0.25
6,MMAT,5.54
7,KMVD,≤ 0.25
8,EMCH,≤ 0.25
9,QKVD,≤ 0.25
10,HALM,14.3
11,CNLV,≤ 0.25
12,GRWQ,≤ 0.25
13,LQCR,≤ 0.25
14,SYAP,≤ 0.25
15,MGGE,≤ 0.25
16,LMPS,≤ 0.25
17,RVWG,≤ 0.25
18,YYGE,≤ 0.25
19,HMIE,≤ 0.25
20,TSDY,5.66
21,WQAW,≤ 0.25
22,MFFK,≤ 0.25
23,GMSG,≤ 0.25
24,RTSW,≤ 0.25
25,SQTD,≤ 0.25

row,Variant,enrichment ratio
1,GDTC,≤ 0.25
2,YRGE,≤ 0.25
3,VEQN,≤ 0.25
4,AMLN,7.92
5,FMNF,≤ 0.25
6,EVHS,≤ 0.25
7,HAYW,≤ 0.25
8,LTAC,≤ 0.25
9,STDI,≤ 0.25
10,ITRK,≤ 0.25
11,ILHY,≤ 0.25
12,FKGT,≤ 0.25
13,DAPV,≤ 0.25
14,DFEP,≤ 0.25
15,HLWT,≤ 0.25
16,TKRL,≤ 0.25
17,RDSM,≤ 0.25
18,SKDL,≤ 0.25
19,SRVF,≤ 0.25
20,RKYH,≤ 0.25
21,AGMF,8.27
22,PFAH,≤ 0.25
23,PYEH,≤ 0.25
24,HNTV,≤ 0.25
25,WNKP,≤ 0.25

row,Variant,enrichment ratio
1,NRPL,≤ 0.25
2,FKDR,≤ 0.25
3,MDGM,≤ 0.25
4,IFED,≤ 0.25
5,PDWG,≤ 0.25
6,FQDA,≤ 0.25
7,YLFC,≤ 0.25
8,KCGA,≤ 0.25
9,GARA,≤ 0.25
10,EYTW,≤ 0.25
11,DHAG,≤ 0.25
12,NYRC,≤ 0.25
13,GRIR,≤ 0.25
14,HNIG,≤ 0.25
15,VLIG,≤ 0.25
16,DVAP,≤ 0.25
17,NLSG,≤ 0.25
18,WGAY,≤ 0.25
19,GSMM,4.61
20,NYLH,≤ 0.25
21,YLPC,≤ 0.25
22,PGCP,≤ 0.25
23,SFTF,≤ 0.25
24,TGDC,≤ 0.25
25,QARI,≤ 0.25

row,Variant,enrichment ratio
1,PMKS,≤ 0.25
2,VHDR,≤ 0.25
3,YIVA,≤ 0.25
4,GYLD,≤ 0.25
5,IKGN,≤ 0.25
6,LNPE,≤ 0.25
7,RTQL,≤ 0.25
8,EFVP,≤ 0.25
9,QQPF,≤ 0.25
10,FFVE,≤ 0.25
11,IYVE,≤ 0.25
12,SEDA,≤ 0.25
13,THER,≤ 0.25
14,GDVF,≤ 0.25
15,PIRD,≤ 0.25
16,RHKF,≤ 0.25
17,ESFV,≤ 0.25
18,KTQN,≤ 0.25
19,KHFV,≤ 0.25
20,FDEE,≤ 0.25
21,RQYG,≤ 0.25
22,MQPL,≤ 0.25
23,SNAD,≤ 0.25
24,YNQV,0.278
25,AYNE,≤ 0.25

row,Variant,enrichment ratio
1,RACS,≤ 0.25
2,EGMG,≤ 0.25
3,RNHT,≤ 0.25
4,REFY,≤ 0.25
5,KGKC,≤ 0.25
6,CIFP,≤ 0.25
7,NVIH,≤ 0.25
8,EPLN,≤ 0.25
9,RGTK,≤ 0.25
10,PVRE,≤ 0.25
11,KGRG,≤ 0.25
12,GRVA,≤ 0.25
13,DMCR,≤ 0.25
14,LQSS,≤ 0.25
15,YYKR,≤ 0.25
16,EDGR,≤ 0.25
17,QDWI,≤ 0.25
18,ATSN,2.52
19,LMLY,≤ 0.25
20,VEQY,≤ 0.25
21,KLSS,≤ 0.25
22,YRSP,≤ 0.25
23,YLIR,≤ 0.25
24,YECP,≤ 0.25
25,KMRP,≤ 0.25

row,Variant,enrichment ratio
1,MWTY,≤ 0.25
2,DEQP,≤ 0.25
3,GYTF,≤ 0.25
4,WDCW,≤ 0.25
5,SELF,13.1
6,HFDY,≤ 0.25
7,RYFK,≤ 0.25
8,RSGY,≤ 0.25
9,LNAG,≤ 0.25
10,PQKD,≤ 0.25
11,KYLR,≤ 0.25
12,FKVT,≤ 0.25
13,TNWH,≤ 0.25
14,CYIS,≤ 0.25
15,TSKE,≤ 0.25
16,IKPG,≤ 0.25
17,KFRC,≤ 0.25
18,HESP,≤ 0.25
19,SDIN,0.748
20,FNDP,≤ 0.25
21,REWI,≤ 0.25
22,WDER,≤ 0.25
23,RTVP,≤ 0.25
24,LEYP,≤ 0.25
25,LEYH,≤ 0.25

row,Variant,enrichment ratio
1,INWN,≤ 0.25
2,GFDS,≤ 0.25
3,WSCQ,≤ 0.25
4,TGRK,≤ 0.25
5,QNPW,≤ 0.25
6,QEST,1.97
7,DFSY,≤ 0.25
8,EAGR,≤ 0.25
9,PMPQ,≤ 0.25
10,MGMQ,7.94
11,VGRK,≤ 0.25
12,LLCG,≤ 0.25
13,PSVV,≤ 0.25
14,YVRI,2.13
15,SLAF,8.18
16,YYLE,≤ 0.25
17,RNQI,≤ 0.25
18,RIQI,≤ 0.25
19,YCYV,≤ 0.25
20,VYPA,≤ 0.25
21,QAYR,≤ 0.25
22,GMTG,≤ 0.25
23,ALKW,≤ 0.25
24,EDHC,≤ 0.25
25,HKAP,≤ 0.25

row,Variant,enrichment ratio
1,NSQA,≤ 0.25
2,NSPT,≤ 0.25
3,HKIA,≤ 0.25
4,GMGL,≤ 0.25
5,MDSH,≤ 0.25
6,MDIM,4.77
7,LDIK,≤ 0.25
8,QPIM,≤ 0.25
9,QNPF,≤ 0.25
10,RKTW,≤ 0.25
11,MEYV,5.49
12,FFLE,≤ 0.25
13,GWHL,≤ 0.25
14,GWEG,≤ 0.25
15,SWMC,≤ 0.25
16,TYDR,≤ 0.25
17,SSRD,≤ 0.25
18,NLNK,≤ 0.25
19,IHLF,≤ 0.25
20,VCEL,≤ 0.25
